Reference: the supplement of paper PMC12340641
In all, about 1,000 compounds were measured (“relative growth in counter assay (no AraC = 100%, AraC + DMSO = 0%)”: median about -1.1, highest 2% from about 20 on). The list shows a part of the results.

System: HEK293FT dCK*-only
Test: relative growth in counter assay (no AraC = 100%, AraC + DMSO = 0%); higher = more growth rescue independent of IKZF1
Details: compound concentration: 5 uM; AraC concentration: 0.3 uM; overnight pretreatment + 4 days AraC
Protocol: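 Growth recovery screen of the molecular-glue-like (Specs) library. HEK293FT cells expressing a dCK*-IKZF1 fusion (primary) or dCK* alone (counter) were pretreated overnight with compound at 5 uM, then given 0.3 uM AraC for 4 days. Hoechst nuclei were counted by imaging. Primary: normalised to pomalidomide (100%) and DMSO (0%), mean of 2 replicates. Counter: normalised to no-AraC (100%) and AraC+DMSO (0%), single replicate.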

| SMILES | relative growth in counter assay [%] |
| --- | --- |
| COCC(C)NC(=O)CN1CCC(c2cccc(Nc3ncc(C)s3)n2)CC1 (stereo not drawn) | -1.08 |
| Cc1cc(C)nc(NS(=O)(=O)c2ccc(NC(=O)C34CC5CC(CC(C5)C3)C4)cc2)n1 | -0.65 |
| O=C(Nc1ccc(S(=O)(=O)Nc2ccccn2)cc1)c1ccncc1 | 3.82 |
| CCC(=O)Nc1ccc(S(=O)(=O)Nc2ncccn2)cc1 | 0.32 |
| CC1CCc2cc(F)ccc2N1C(=O)CSc1nnc2c(n1)[nH]c1ccccc12 (stereo not drawn) | 6.61 |
| CC(=O)Nc1ccc(Oc2ccc3c(c2)C(=O)N(c2ccc(C)cc2)C3=O)cc1 | 2.18 |
| O=C1CCCN1CCOCC(=O)N1CCOC(c2cccc(Nc3nccs3)n2)C1 (stereo not drawn) | -1.14 |
| COc1nccnc1NS(=O)(=O)c1ccc(NC(=S)NC(=O)/C=C/c2cccs2)cc1 | 8.21 |
| O=C(CCCOc1ccccc1)Nc1ccc(S(=O)(=O)Nc2ncccn2)cc1 | 2.79 |
| CCCOC(=O)Nc1ccc(S(=O)(=O)Nc2ncccn2)cc1 | 8.76 |
| COc1cc(NS(=O)(=O)c2ccc(N3C(=O)C=CC3=O)cc2)nc(OC)n1 | -6.78 |
| Cc1cc(NS(=O)(=O)c2ccc(NC(=O)COc3ccc(Cl)cc3C)cc2)nc(C)n1 | -2.52 |
| Cc1ccnc(NS(=O)(=O)c2ccc(NC(=O)CC(C)C)cc2)n1 | -5.64 |
| O=C1CCC(N2C(=O)c3cccc(NC[C@H]4CC[C@H](C(=O)O)CC4)c3C2=O)C(=O)N1 (stereo partly drawn) | 4.01 |
| Cc1nc(Nc2cccc(C3CN(C(=O)c4cccc5cccnc45)CCO3)n2)sc1C (stereo not drawn) | 3.18 |
| O=C(COc1ccccc1Cl)Nc1ccc(S(=O)(=O)Nc2ncccn2)cc1 | -4.17 |
| COC(C)(C)C(=O)N1CCCC(c2csc(Nc3ccc(C)cn3)n2)C1 (stereo not drawn) | 3.45 |
| Cc1cc(CCCC(=O)N2CCCC2c2cccc(Nc3nccs3)n2)ccc1F (stereo not drawn) | 1.98 |
| O=C(CN1CCN(CCO)CC1)N1CCC(c2cccc(Nc3ncc(-c4ccccc4)s3)n2)CC1 | -16.3 |
| Cc1ccnc(NS(=O)(=O)c2ccc(NC(=O)c3cc(Cl)ccc3Cl)cc2)n1 | 4.3 |
| O=C1CCC(N2C(=O)c3cc(F)c(N4CCC(Cn5cc(C(=O)O)cn5)CC4)cc3C2=O)C(=O)N1 (stereo not drawn) | 10.8 |
| Cc1nc(Nc2cccc(C3CCCN3C(=O)CCOc3cccc(F)c3)n2)sc1C (stereo not drawn) | 5.41 |
| O=C(C1CCCCC1)N1CCOC(c2cccc(Nc3nccs3)n2)C1 (stereo not drawn) | -5.66 |
| O=C1CCC(N2C(=O)c3cccc(N4CCN(C5CCC(C(=O)O)CC5)CC4)c3C2=O)C(=O)N1 (stereo not drawn) | 2.79 |

| SMILES | relative growth in counter assay [%] |
| --- | --- |
| O=C(Nc1ccc(S(=O)(=O)Nc2ncccn2)cc1)C1COc2ccccc2O1 (stereo not drawn) | -0.31 |
| Cc1nc(Nc2cccc(C3CCN(CC(=O)NCc4ccccn4)CC3)n2)sc1C | -1.26 |
| O=C(/C=C/c1ccccc1)N1CCCC(c2csc(Nc3ccccn3)n2)C1 (stereo not drawn) | 34.8 |
| O=C(C1CCCCC1)N1CCOC(c2cccc(Nc3ncc(Cc4ccccc4Cl)s3)n2)C1 (stereo not drawn) | 3.29 |
| O=S(=O)(Nc1ccc(S(=O)(=O)Nc2ncccn2)cc1)c1ccc(F)cc1 | -1.97 |
| Cc1ccc(Cl)cc1NC(=O)CSc1nnc2c(n1)[nH]c1c(C)ccc(C)c12 | 5.08 |
| Cc1csc(Nc2cccc(C3CN(C(=O)CCCc4ccc(F)cc4)CCO3)n2)n1 (stereo not drawn) | 36.2 |
| Nc1nc(N)c2ncn([C@@H]3CCC[C@@H](N)[C@H]3O)c2n1 | -0.08 |
| O=C(CSc1nc2ccccc2n1Cc1ccccc1)Nc1ccccn1 | -0.97 |
| Cc1nc(Nc2cccc(C3CCN(C(=O)c4n[nH]c5c4CCCC5)CC3)n2)sc1C | 14 |
| CC(=O)Nc1ccc(S(=O)(=O)Nc2ccccn2)cc1 | -7.51 |
| Cc1cnc(Nc2cccc(C(CO)C3CCN(C(=O)c4cccc(Cl)c4F)CC3)n2)s1 (stereo not drawn) | -1.22 |
| Cc1cnc(Nc2cccc(C3CN(C(=O)Cn4ccnc4)CCO3)n2)s1 (stereo not drawn) | -7.8 |
| CCCN1CC(C(=O)N2CCC(c3cccc(Nc4ncc(C)s4)n3)CC2)CC1=O (stereo not drawn) | -6.33 |
| O=C(Nc1ccc(S(=O)(=O)Nc2ncccn2)cc1)c1cccc(Br)c1 | -11.3 |
| Cc1cc(C)nc(NS(=O)(=O)c2ccc(NC(=O)/C=C/c3ccccc3)cc2)n1 | 3.78 |
| Cc1cc(C)nc(NS(=O)(=O)c2ccc(NC(=O)c3ncoc3-c3ccccc3)cc2)n1 | 1.41 |
| COc1cc(NS(=O)(=O)c2ccc(NC(=O)c3ccc(OC)c(OC)c3)cc2)nc(OC)n1 | -4.74 |
| Cc1cnc(Nc2cccc(C3CCN(C(=O)C4C5C=CC(C5)C4C(=O)NCC(C)C)CC3)n2)s1 (stereo not drawn) | -18.4 |
| Cc1cc(C)c(S(=O)(=O)Nc2ccc(S(=O)(=O)Nc3ncccn3)cc2)c(C)c1 | -5.1 |
| CCc1ccc(OCC(=O)Nc2ccc(S(=O)(=O)Nc3ccccn3)cc2)cc1 | 4.87 |
| Cc1cc(C)nc(NS(=O)(=O)c2ccc(/N=C3/NC(=O)CS3)cc2)n1 | 5.28 |
| CCOc1ccccc1C(=O)Nc1ccc(S(=O)(=O)Nc2nccc(C)n2)cc1 | -22.1 |
| CCCc1cnc(Nc2cccc(C3CCN(C(=O)C4COCCN4)CC3)n2)s1 (stereo not drawn) | -24.3 |
